Measured values reported in the supplement of paper PMC8728848.
This is one part of the list.

Experiments:
Assay in all cases: glycan array binding signal (z-score within array); higher = stronger binding
Conditions in all cases: glycan notation: IUPAC condensed, linker removed
[1] = target: Gal(b1-4)GlcNAc(b1-2)Man(a1-3)Man(b1-4)GlcNAc(b1-4)GlcNAc
Procedure, shortened: (§1)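 The Consortium for Functional Glycomics database supplied 3228 glycan arrays, of which those lacking an available protein sequence were dropped. The binding signal, a within-array Z-score, was averaged across arrays of the same protein sequence and across linkers. Negative scores can be read as non-binding.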

[2] = target: Gal(b1-4)GlcNAc(b1-2)Man(a1-3)[Gal(b1-4)GlcNAc(b1-2)Man(a1-6)]Man(b1-4)GlcNAc(b1-4)GlcNAc
Procedure, shortened: as §1

[3] = target: Gal(b1-4)GlcNAc(b1-2)Man(a1-3)[Gal(b1-4)GlcNAc(b1-2)Man(a1-6)]Man(b1-4)GlcNAc(b1-4)[Fuc(a1-6)]GlcNAc
Procedure, shortened: as §1

[4] = target: Gal(b1-4)GlcNAc(b1-2)Man(a1-3)[Gal(b1-4)GlcNAc(b1-2)][GlcNAc(b1-4)]Man(b1-4)GlcNAc(b1-4)GlcNAc
Procedure, shortened: as §1

[5] = target: Gal(b1-4)GlcNAc(b1-2)Man(a1-3)[GlcNAc(b1-2)Man(a1-6)]Man(b1-4)GlcNAc(b1-4)GlcNAc
Procedure, shortened: as §1

[6] = target: Gal(b1-4)GlcNAc(b1-2)Man(a1-3)[Man(a1-6)]Man(b1-4)GlcNAc(b1-4)GlcNAc
Procedure, shortened: as §1

[7] = target: Gal(b1-4)GlcNAc(b1-2)Man(a1-6)Man(b1-4)GlcNAc(b1-4)GlcNAc
Procedure, shortened: as §1

[8] = target: Gal(b1-4)GlcNAc(b1-2)Man(a1-6)[GlcNAc(b1-2)Man(a1-3)]Man(b1-4)GlcNAc(b1-4)GlcNAc
Procedure, shortened: as §1

[9] = target: Gal(b1-4)GlcNAc(b1-2)Man(a1-6)[Man(a1-3)]Man(b1-4)GlcNAc(b1-4)GlcNAc
Procedure, shortened: as §1

[10] = target: Gal(b1-4)GlcNAc(b1-2)[Gal(b1-4)GlcNAc(b1-4)]Man(a1-3)[Gal(b1-4)GlcNAc(b1-2)Man(a1-6)]Man(b1-4)GlcNAc(b1-4)GlcNAc
Procedure, shortened: as §1

[11] = target: Gal(b1-4)GlcNAc(b1-2)[Gal(b1-4)GlcNAc(b1-4)]Man(a1-3)[Gal(b1-4)GlcNAc(b1-2)[Gal(b1-4)GlcNAc(b1-6)]Man(a1-6)]Man(b1-4)GlcNAc(b1-4)GlcNAc
Procedure, shortened: as §1

[12] = target: Gal(b1-4)GlcNAc(b1-2)[Gal(b1-4)GlcNAc(b1-4)]Man(a1-3)[GlcNAc(b1-4)][Gal(b1-4)GlcNAc(b1-2)Man(a1-6)]Man(b1-4)GlcNAc(b1-4)GlcNAc
Procedure, shortened: as §1

[13] = target: Gal(b1-4)GlcNAc(b1-2)[Gal(b1-4)GlcNAc(b1-4)]Man(a1-3)[GlcNAc(b1-4)][Gal(b1-4)GlcNAc(b1-2)[Gal(b1-4)GlcNAc(b1-6)]Man(a1-6)]Man(b1-4)GlcNAc(b1-4)GlcNAc
Procedure, shortened: as §1

[14] = target: Gal(b1-4)GlcNAc(b1-2)[Gal(b1-4)GlcNAc(b1-6)]Man(a1-6)[Gal(b1-4)GlcNAc(b1-2)Man(a1-3)]Man(b1-4)GlcNAc(b1-4)GlcNAc
Procedure, shortened: as §1

[15] = target: Gal(b1-4)GlcNAc(b1-2)[Gal(b1-4)GlcNAc(b1-6)]Man(a1-6)[GlcNAc(b1-4)][Gal(b1-4)GlcNAc(b1-2)Man(a1-3)]Man(b1-4)GlcNAc(b1-4)GlcNAc
Procedure, shortened: as §1

[16] = target: Gal(b1-4)GlcNAc(b1-3)Gal(b1-3)GlcNAc
Procedure, shortened: as §1

[17] = target: Gal(b1-4)GlcNAc(b1-3)Gal(b1-4)Glc
Procedure, shortened: as §1

[18] = target: Gal(b1-4)GlcNAc(b1-3)Gal(b1-4)GlcNAc
Procedure, shortened: as §1

[19] = target: Gal(b1-4)GlcNAc(b1-3)Gal(b1-4)GlcNAc(b1-3)Gal(b1-4)GlcNAc
Procedure, shortened: as §1

[20] = target: Gal(b1-4)GlcNAc(b1-3)Gal(b1-4)[Fuc(a1-3)GlcNAc(b1-6)]Gal(b1-4)Glc
Procedure, shortened: as §1

[21] = target: Gal(b1-4)GlcNAc(b1-3)Gal(b1-4)[Fuc(a1-3)]GlcNAc(b1-3)Gal(b1-4)[Fuc(a1-3)]GlcNAc
Procedure, shortened: as §1

[22] = target: Gal(b1-4)GlcNAc(b1-3)GalNAc
Procedure, shortened: as §1

[23] = target: Gal(b1-4)GlcNAc(b1-3)[Gal(b1-4)GlcNAc(b1-6)]Gal(b1-4)GlcNAc
Procedure, shortened: as §1

[24] = target: Gal(b1-4)GlcNAc(b1-3)[Gal(b1-4)GlcNAc(b1-6)]GalNAc
Procedure, shortened: as §1

[25] = target: Gal(b1-4)GlcNAc(b1-3)[GlcNAc(b1-6)]Gal(b1-4)GlcNAc
Procedure, shortened: as §1

[26] = target: Gal(b1-4)GlcNAc(b1-6)Gal(b1-4)GlcNAc
Procedure, shortened: as §1

[27] = target: Gal(b1-4)GlcNAc(b1-6)Gal(b1-4)GlcNAc(b1-6)GalNAc
Procedure, shortened: as §1

[28] = target: Gal(b1-4)GlcNAc(b1-6)GalNAc
Procedure, shortened: as §1

[29] = target: Gal(b1-4)GlcNAc(b1-6)[Gal(b1-3)]GalNAc
Procedure, shortened: as §1

Gal(b1-6)Gal = target: Gal(b1-6)Gal
Procedure, shortened: as §1

Gal3S(b1-3)GalNAc = target: Gal3S(b1-3)GalNAc
Procedure, shortened: as §1

Gal3S(b1-3)GlcNAc = target: Gal3S(b1-3)GlcNAc
Procedure, shortened: as §1

[30] = target: Gal3S(b1-3)[Fuc(a1-4)]GlcNAc
Procedure, shortened: as §1

Gal3S(b1-4)Glc = target: Gal3S(b1-4)Glc
Procedure, shortened: as §1

Gal3S(b1-4)Glc6S = target: Gal3S(b1-4)Glc6S
Procedure, shortened: as §1

Gal3S(b1-4)GlcNAc = target: Gal3S(b1-4)GlcNAc
Procedure, shortened: as §1

Gal3S(b1-4)GlcNAc6S = target: Gal3S(b1-4)GlcNAc6S
Procedure, shortened: as §1

B1: FedF (Escherichia coli), Q47212 (protein)
chain: MRLKYILIIPLLLISLSVFASTLQVDKSVSYDWINSSASSAQVTGTLLGTGKTNTTQMPALYTWQHQIYNVNFIPSSSGTLTCQAGTILVWKNGRETQYALECRVSIHHSSGSINESQWGQQSQVGFGTACGNKKCRFTGFEISLRIPPNAQTYPLSSGDLKGSFSLTNKEVNWSASIYVPAIAKSYRLDTSITLPDTVNLKQNQATPVYYTFSAPSVSNTITGIPNQNDMPSSNVKLTIGPIQSKTTALYVQPDATGSWYDLSKSITMTVVKSSMLNFKGINAKPGNVTLSVPIVFEIQ
glycan array binding signal (z-score) [1]: 0.061 | glycan array binding signal (z-score) [2]: -0.353 | glycan array binding signal (z-score) [3]: 0.052 | glycan array binding signal (z-score) [4]: -0.163 | glycan array binding signal (z-score) [5]: -0.146 | glycan array binding signal (z-score) [6]: 0.126 | glycan array binding signal (z-score) [7]: 0.184 | glycan array binding signal (z-score) [8]: -0.17 | glycan array binding signal (z-score) [9]: -0.136 | glycan array binding signal (z-score) [10]: -0.154 | glycan array binding signal (z-score) [11]: -0.12 | glycan array binding signal (z-score) [12]: -0.185 | glycan array binding signal (z-score) [13]: -0.179 | glycan array binding signal (z-score) [14]: -0.145 | glycan array binding signal (z-score) [15]: -0.158 | glycan array binding signal (z-score) [16]: -0.106 | glycan array binding signal (z-score) [17]: -0.369 | glycan array binding signal (z-score) [18]: -0.452 | glycan array binding signal (z-score) [19]: -0.258 | glycan array binding signal (z-score) [20]: -0.17 | glycan array binding signal (z-score) [21]: -0.114 | glycan array binding signal (z-score) [22]: -0.31 | glycan array binding signal (z-score) [23]: -0.091 | glycan array binding signal (z-score) [24]: -0.249 | glycan array binding signal (z-score) [25]: -0.065 | glycan array binding signal (z-score) [26]: -0.182 | glycan array binding signal (z-score) [27]: -0.413 | glycan array binding signal (z-score) [28]: -0.168 | glycan array binding signal (z-score) [29]: -0.225 | glycan array binding signal (z-score) (Gal(b1-6)Gal): -0.213 | glycan array binding signal (z-score) (Gal3S(b1-3)GalNAc): -0.186 | glycan array binding signal (z-score) (Gal3S(b1-3)GlcNAc): 0.263 | glycan array binding signal (z-score) [30]: 0.257 | glycan array binding signal (z-score) (Gal3S(b1-4)Glc): 0.692 | glycan array binding signal (z-score) (Gal3S(b1-4)Glc6S): 1.04 | glycan array binding signal (z-score) (Gal3S(b1-4)GlcNAc): 0.14 | glycan array binding signal (z-score) (Gal3S(b1-4)GlcNAc6S): 0.729
